Where two headings read alike, the source gives them in different places.
How the values were obtained:
Test in all cases: BLI
[1] = target: T1, EGFRvIII (human, UniProt P00533)
[2] = target: T2, EGFR (wild-type, His-tagged or biotinylated) (human, UniProt P00533)
[3] = target: T1, EGFRvIII; remark: listed apart in the source
[4] = target: T2, EGFR (wild-type, His-tagged or …); remark: listed apart in the source

Kd [1] [nM] | Kd [2] [nM] | Kd [3] [nM] | Kd [4] [nM] | Binder
0.838 | 1.18 |  |  | SI-95X43 (antibody) chain 1: DVQLQESGPSLVKPSQSLSLTCTVTGYSITSDFAWNWIRQFPGNKLEWMGYISYSGNTRYNPSLKSRISITRDTSKNQFFLQLNSVTIEDTATYYCVTAGRGFPYWGQGTLVTVSAASTKGPSVFPLAPSSKSTSGGTAALGCLVKDYFPEPVTVSWNSGALTSGVHTFPAVLQSSGLYSLSSVVTVPSSSLGTQTYICNVNHKPSNTKVDKRV[human IgG1 Fc omitted here] chain 2: not shown
 |  | 0.401 | 1.44 | SI-95X36 (antibody) chain 1: DVQLQESGPSLVKPSQSLSLTCTVTGYSITSDFAWNWIRQFPGNKLEWMGYISYSGNTRYNPSLKSRISITRDTSKNQFFLQLNSVTIEDTATYYCVTAGRGFPYWGQGTLVTVSAASTKGPSVFPLAPSSKSTSGGTAALGCLVKDYFPEPVTVSWNSGALTSGVHTFPAVLQSSGLYSLSSVVTVPSSSLGTQTYICNVNHKPSNTKVDKRV[human IgG1 Fc omitted here] chain 2: not shown
